Reference: PubChem BioAssay AID1460 (National Center for Advancing Translational Sciences (NCATS), 2008)
Several values for one entry are separate records, joined by “and”; a condition that tells them apart may be missing. Identical values can stand only once. Hit rate of the full screen: of about 270,000 compounds, about 5,800 (2.1%) were called active. Inconclusive results, whose numbers are uncertain, are shown with a selection of clear calls. The call rests on the fitted dose curve; in most records, active means well fitted inhibition curve with a large enough effect; inconclusive means small, poorly fitted or top-dose-only effect; inactive means flat fitted curve, though single readings scatter. A potency beside an inconclusive call is a rough fit, not a confirmed value.

The compounds below were run against Microtubule-associated protein tau (Homo sapiens) (UniProt P10636) (assay: qHTS for Inhibitors of Tau Fibril Formation, Thioflavin T Binding). Conditions: recombinant tau K18 P301L, heparin-induced fibrillization, ThT fluorescence; series mostly up to 57.4 µM.
Chain of UniProt P10636 (P10636 whole entry, looked up): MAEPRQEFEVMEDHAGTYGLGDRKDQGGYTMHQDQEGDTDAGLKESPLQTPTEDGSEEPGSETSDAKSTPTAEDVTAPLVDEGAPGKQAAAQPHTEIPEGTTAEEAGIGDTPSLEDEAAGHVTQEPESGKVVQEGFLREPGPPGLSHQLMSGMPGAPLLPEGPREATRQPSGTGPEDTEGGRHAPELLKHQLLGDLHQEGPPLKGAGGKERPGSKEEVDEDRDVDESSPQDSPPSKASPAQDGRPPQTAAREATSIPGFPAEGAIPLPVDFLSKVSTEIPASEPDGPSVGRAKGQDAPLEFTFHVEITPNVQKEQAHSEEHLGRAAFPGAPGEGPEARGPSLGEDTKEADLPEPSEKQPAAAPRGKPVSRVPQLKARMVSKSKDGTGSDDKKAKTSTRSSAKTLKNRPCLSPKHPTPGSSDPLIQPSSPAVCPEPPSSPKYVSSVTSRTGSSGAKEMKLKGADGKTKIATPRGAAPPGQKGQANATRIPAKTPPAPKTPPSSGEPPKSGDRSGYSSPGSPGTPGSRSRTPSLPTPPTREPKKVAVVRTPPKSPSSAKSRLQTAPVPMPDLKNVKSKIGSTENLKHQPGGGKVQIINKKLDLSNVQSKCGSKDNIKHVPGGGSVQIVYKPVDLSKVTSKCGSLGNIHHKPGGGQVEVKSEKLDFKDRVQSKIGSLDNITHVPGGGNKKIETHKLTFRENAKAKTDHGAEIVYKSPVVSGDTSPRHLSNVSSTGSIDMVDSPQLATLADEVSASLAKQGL
Summary of the method: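 Using a mix of unlabeled (15 uM) and Alexa 594-labeled (0.24 uM) tau K18 P301L, heparin-triggered fibrillization over 6 hr at 37 C was scored by ThT fluorescence.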
Further: nearly all actives have a fitted effect of over 55% in size.
Potency means the concentration at half of the fitted maximal effect; tags describe the fitted curve by direction and shape.

| Structure (SMILES) | Potency |
| --- | --- |
| O=C(Oc1csc(=S)n1C(=O)c1ccccc1)c1ccccc1 | active: 11.2 µM |
| CCOC(=O)C1(CC2CCCCO2)CCN(S(=O)(=O)c2ccc(C)s2)CC1 (stereo unspecified) | inactive |
| O=C(c1ccco1)N1CCN(C(c2ccccc2Cl)c2nnnn2Cc2cccs2)CC1 (stereo unspecified) | inactive |
| CCOC(=O)c1cnc(-n2[nH]c(C)cc2=O)[nH]c1=O | inconclusive: 12.6 µM [inhibitor, partial curve] |
| C/C(=N\Nc1ccc([N+](=O)[O-])cc1[N+](=O)[O-])C(C)(C)C(C(=O)O)C(=O)O | inconclusive: 25.1 µM [inhibitor, partial curve] |
| COc1ccccc1/C=C/C(=O)Nc1ccc2c(c1)CCC2 | inconclusive: 5.01 µM [inhibitor, full curve] |
| CCn1c(C)nc2cc(C(=O)NNC(=S)Nc3ccccc3Cl)ccc21 | inconclusive: 20 µM [inhibitor, single point] |
| Cc1ccc(C)c(C(=O)COC(=O)CCCC(=O)Nc2cc(C(F)(F)F)ccc2Cl)c1 | inconclusive: 17.8 µM [inhibitor, partial curve] and inconclusive: 12.6 µM [inhibitor, partial curve] |
| CCCn1c(SCC(=O)N2c3ccccc3Sc3ccccc32)nc2c1c(=O)n(C)c(=O)n2C | inconclusive: 39.8 µM [inhibitor, partial curve, poor fit] |
| Cc1ccc(-c2csc3n[nH]c(=S)n23)cc1 | inconclusive: 14.1 µM [inhibitor, partial curve] |
| CCOC(=O)C1=C(C)OC(N)=C(C#N)C1c1ccoc1 (stereo unspecified) | inconclusive: 31.6 µM [inhibitor, single point] |
| CC1=C(C(=O)Nc2ccc(F)cc2F)C2(CCCCCC2)OC1=O | inactive |
| CN(C)c1ccc(/C=N/n2c(COc3ccccc3)n[nH]c2=S)cc1 | inconclusive: 20 µM [inhibitor, single point] |
| COc1ccc(-c2cc(C(F)(F)F)nc(SCC(=O)NCc3ccc(Cl)cc3)n2)cc1 | inactive |
| Cc1cccc2c1-c1sc(C(=O)N3CCN(c4cccc(Cl)c4)CC3)cc1CO2 | inconclusive: 7.08 µM [inhibitor, full curve] |
| COc1ccc(C2C3=C(N=C4SCC(=O)N42)c2ccccc2CC3)cc1OC (stereo unspecified) | inconclusive: 15.8 µM [inhibitor, partial curve] |
| CCn1c(C)cc(/C=C2/SC(=S)NC2=O)c1C | active: 12.6 µM |
| CCOc1ccc(CCNC(=O)c2cnc3sc(N4CCCCCC4)nn3c2=O)cc1 | inactive |
| Cc1ccnc(NC(=O)c2c(O)c3ccccc3n(C)c2=O)c1 | inconclusive: 2.24 µM [inhibitor, partial curve] |
| CC1(C)CC(=O)c2cnc(NC(=O)CSc3nc4ccccc4o3)nc2C1 | inactive |
| CCCCn1nc(NC(=O)c2cccs2)c2cc3cc(OC)ccc3nc21 | inactive |
| CCN(CC)S(=O)(=O)c1ccc(C(=O)NCCSc2c(-c3ccc(OC)cc3)[nH]c3ccccc23)cc1 | inactive |
| CC(=O)c1c(C)oc2ccc(N(C(=O)c3ccncc3)S(=O)(=O)c3ccc(C)cc3C)cc12 | inconclusive: 15.8 µM [inhibitor, partial curve] |

| Structure (SMILES) | Potency |
| --- | --- |
| Cc1ccccc1-c1cc(=O)c2c(O)cccc2o1 | inactive |
| CN(C)CC(C)(C)CN=Cc1c(O)[nH]c2ccccc12 | inactive |
| Cc1oc(-c2ccccc2Cl)nc1Cn1cccc1C1=NC(c2ccccc2)CO1 (stereo unspecified) | inconclusive: 31.6 µM [inhibitor, single point] |
| Cc1nc(NS(=O)(=O)c2ccccc2)sc1NC(=O)OCCN(C)C | inconclusive: 35.5 µM [inhibitor, partial curve] |
| Cn1c(N)c(C(=O)NCc2ccccc2)sc1=S | inactive |
| CC(C)CNS(=O)(=O)c1ccc(NC(=O)Cn2nc(-c3ccc(F)cc3)ccc2=O)cc1 | inactive |
| COCCn1c(C)cc(/C=C2/NC(=O)N(c3cccc(Cl)c3)C2=O)c1C | inconclusive: 17.8 µM [inhibitor, partial curve, poor fit] |
| COc1ccc(-c2cc(C(F)(F)F)n3nc(C(=O)N4CCCCC4)cc3n2)cc1OC | inconclusive: 10 µM [inhibitor, partial curve] |
| COc1cn(CC(=O)Nc2cc(C)ccc2C)c(CN2CCCCC2)cc1=O | inactive |
| N/C(=N\OC(=O)/C=C/c1ccccc1Cl)c1cccnc1 | inconclusive: 14.1 µM [inhibitor, partial curve] |
| O=C(O)c1cccc(N/N=C/c2cc(Br)cc(Br)c2O)c1 | active: 11.2 µM |
| COc1ccc2c(c1)C(=O)[C@@H](OC(=O)NCc1ccc3c(c1)OCO3)[C@H](c1ccc(OC)c(Br)c1)O2 | inconclusive: 12.6 µM [inhibitor, partial curve] |
| COc1ccc(/C=C/CN2CCCC(CO)(Cc3cccc(Cl)c3)C2)cc1 (stereo unspecified) | inactive |
| C=CCN1C(=O)/C(=c2\sc3nc(=O)c(Cc4ccc(OC)c(OC)c4)nn3c2=O)c2ccccc21 | active: 28.2 µM |
| CCOC(=O)c1cc2c(ccn2C)n1CC(=O)N(Cc1ccccc1)c1ccccc1 | inconclusive: 8.91 µM [inhibitor, partial curve] |
| CCOC(=O)c1cccc(NC(=O)N2CCC(CN3CCCCCC3)CC2)c1 | inconclusive: 39.8 µM [inhibitor, single point] |
| Cc1cc(C)c(NC(=O)C(C)n2nnc3sc(-c4ccccc4)cc3c2=O)c(C)c1 (stereo unspecified) | inconclusive: 7.94 µM [inhibitor, single point] |
| Nc1nc(Nc2ccccc2)nc2ccccc12 | inactive |
| C=CCn1c(=NC(=O)c2ccco2)sc2cc(C(=O)OC)ccc21 | inconclusive: 3.98 µM [inhibitor, full curve] |
| Cc1cc(C)cc(Nc2cc(C(=O)NCc3ccccc3)c3ccccc3n2)c1 | inactive |
| O=C(Nc1nnc(COc2ccc(Cl)cc2)s1)C1CCCO1 (stereo unspecified) | inactive |
| CCCC(=O)Nc1ccc(Sc2ccc([N+](=O)[O-])cc2)cc1 | inactive |
| O=c1[nH]c(N/N=C/c2ccccc2Br)nnc1-c1ccccc1 | inconclusive: 12.6 µM [inhibitor, partial curve] |
